Source: PubChem BioAssay AID1645887 (National Center for Advancing Translational Sciences (NCATS), 2021)
Values joined by “and” are separate entries in the source; they are usually repeats but may differ in a detail not shown here. Equal entries are not always repeated. Screen size: about 16,000 compounds; about 40 (0.2%) were called active. Another 1% or so got no clear call; they are omitted. The call rests on the fitted dose curve; in most records, active means well fitted activation curve with a large enough effect; inconclusive means small, poorly fitted or top-dose-only effect, or another doubt; inactive means no such curve, though single readings can be large or run the other way. The list shows a part of the results. The source holds several records for some structures; these can differ, active in one and inactive in another.

The compounds below were run against Rap guanine nucleotide exchange factor 4 (Homo sapiens) (UniProt Q8WZA2) (assay: Validation qHTS for agonist of cAMP-regulated guanine nucleotide exchange factor 4 (EPAC2)). Details: EPAC2 Rap1B BODIPY-GDP exchange, fluorescence; activation: stronger effect = higher value.
UniProt Q8WZA2, sequence (Q8WZA2 whole entry, looked up): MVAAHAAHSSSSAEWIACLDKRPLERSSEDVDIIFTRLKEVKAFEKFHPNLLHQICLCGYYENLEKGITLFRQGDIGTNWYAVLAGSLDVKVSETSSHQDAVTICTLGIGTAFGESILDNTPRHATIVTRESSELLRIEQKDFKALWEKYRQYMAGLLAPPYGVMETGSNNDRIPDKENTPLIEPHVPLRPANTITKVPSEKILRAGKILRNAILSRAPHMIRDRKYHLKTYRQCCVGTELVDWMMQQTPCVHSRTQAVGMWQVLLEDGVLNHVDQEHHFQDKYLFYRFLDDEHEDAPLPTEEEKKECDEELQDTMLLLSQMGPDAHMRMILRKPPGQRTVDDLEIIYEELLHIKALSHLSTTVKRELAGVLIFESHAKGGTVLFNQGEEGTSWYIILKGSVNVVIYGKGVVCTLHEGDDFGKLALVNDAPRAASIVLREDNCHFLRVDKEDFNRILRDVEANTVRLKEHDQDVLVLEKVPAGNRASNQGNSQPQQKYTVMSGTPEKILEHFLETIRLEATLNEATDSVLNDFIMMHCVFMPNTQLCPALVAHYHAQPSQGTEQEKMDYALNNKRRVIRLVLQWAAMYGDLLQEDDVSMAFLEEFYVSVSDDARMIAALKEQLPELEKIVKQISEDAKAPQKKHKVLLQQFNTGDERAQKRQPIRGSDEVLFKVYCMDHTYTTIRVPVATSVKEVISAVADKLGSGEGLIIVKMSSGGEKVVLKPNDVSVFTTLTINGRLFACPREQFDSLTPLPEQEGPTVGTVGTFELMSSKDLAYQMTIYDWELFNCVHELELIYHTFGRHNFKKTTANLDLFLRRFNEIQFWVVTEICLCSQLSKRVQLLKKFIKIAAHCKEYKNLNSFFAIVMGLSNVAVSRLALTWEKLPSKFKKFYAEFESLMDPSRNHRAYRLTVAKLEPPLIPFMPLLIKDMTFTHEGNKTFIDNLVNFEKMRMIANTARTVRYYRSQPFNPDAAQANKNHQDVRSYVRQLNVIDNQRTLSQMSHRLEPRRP
Method in brief: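 Fluorescent exchange assay: 100 nM EPAC2 with 250 nM RAP1B-BODIPY-GDP and 50 uM GDP; compound added, 5 min at room temperature, then read (ex 480/em 540 nm) every 5 min for 30 min. Normalized to 6.5 mM cAMP agonist control.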
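Further: exchange makes BODIPY-GDP fluorescence drop when released from Rap1B; series mostly up to about 150 µM.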
On the % scale 0 is the no-effect control and ±100 the full control effect.

With O=P(O)(O)C(Cl)(Cl)P(=O)(O)O as the compound, how does the activation read?
The activation was inactive: -33.3%.

With COc1cc(C2c3cc4c(cc3C(O)C3COC(=O)C23)OCO4)cc(OC)c1O (centres undefined) as the compound, how does the activation read?
Its activation is inactive: -5.02%.

How did the activation turn out when C[C@]12C/C(=C/O)C(=O)C[C@@H]1CC[C@@H]1[C@@H]2CC[C@@]2(C)[C@H]1CC[C@]2(C)O was run?
The activation was inactive: -18.4%.

CC(C)=CCN1CC[C@]2(C)c3cc(O)ccc3C[C@H]1[C@H]2C was tested. Which activation did it give?
The activation was inactive: 0.962%.

How did the activation turn out when C[C@H]1CNCCc2ccc(Cl)cc21 was run?
The activation was inactive: 3.16%.

How did the activation turn out when O=C(O)c1cc[c]([Hg][Cl])cc1 was run?
The activation was inactive: -22.4%.

With FC(F)(F)c1cccc(N2CCNCC2)c1 as the compound, how does the activation read?
Its activation is inactive: -2.91%.

For CC1=NN=C(c2ccc(N)cc2)c2cc3c(cc2C1)OCO3, which activation is on record?
The activation was inactive: -34.2%.

COc1cc(=O)n2c(c1C(=O)N(C)Cc1nonc1C)CCN(C(=O)C1C(C)(C)C1(C)C)CC2 was tested. Which activation did it give?
Its activation is inactive: 7.62%.

Which activation does the source give for CC(=O)O.CC(=O)O.[Cd] here?
The activation was inactive: -17.7%.

CC1CC(Cl)CCC1C(=O)OC(C)(C)C (centres undefined) was tested. Which activation did it give?
Its activation is inactive: 0.367%.

How did the activation turn out when Cc1c(O)c(O)cc2c1CC=C1[C@]3(C)CC[C@]4(C)CC[C@@](C)(C(=O)O)CC4[C@]3(C)CC[C@]12C (some centres undefined) was run?
Its activation is inactive: -14.1%.

Which activation does the source give for COc1ccccc1N1CCNCC1 here?
Its activation is inactive: 2.1% and inactive: -22% and inactive: 12.3%.

CC1(C)S[C@H]2[C@@H](N)C(=O)N2[C@H]1C(=O)O was tested. Which activation did it give?
Its activation is inactive: 2.37%.

For CC(=O)[C@H]1CC[C@H]2[C@@H]3CC[C@H]4C[C@H](O)CC[C@]4(C)[C@H]3C(=O)C[C@]12C, which activation is on record?
The activation was inactive: -6.54% and inactive: -27.4%.

CCOc1cc(C=O)ccc1O was tested. Which activation did it give?
Its activation is inactive: -6.75%.

For CC1CC2CC(=O)C3CCCN4CCCC2[C@]34C1 (some centres undefined), which activation is on record?
The activation was inactive: -10.7%.

Which activation does the source give for C=C1C[C@@H]2[C@H](CC[C@]3(C)C(=O)CC[C@@H]23)[C@@]2(C)C=CC(=O)C=C12 here?
Its activation is inactive: -11.3%.

How did the activation turn out when CNC(C)Cc1ccccc1OC (centres undefined) was run?
The activation was inactive: -6.91%.

Which activation does the source give for CC(=O)OC1C[C@@]2(C)C(c3ccoc3)C[C@H]3O[C@@]32[C@@]2(C)C(=O)C(O)=C3C(C)(C)C(=O)C=C[C@]3(C)C12 (some centres undefined) here?
Its activation is inactive: -1.74%.

How did the activation turn out when CC1C(=O)OC2CCN3CC=C(COC(=O)[C@](C)(O)[C@]1(C)O)C23 (some centres undefined) was run?
The activation was inactive: -7.44%.

Which activation does the source give for CCCCC/C=C\C/C=C\C/C=C\C/C=C\CCCC(=O)NCC(=O)O here?
The activation was inactive: -20.4% and inactive: -6.2%.

With O=C(Nc1cccc(F)c1)N1CC2(CCN(C(=O)Oc3ccccc3)CC2)C1 as the compound, how does the activation read?
Its activation is inactive: 9.35%.

With O=C(N[C@H]1N=C(c2ccccc2F)c2cccc3c2N(CC3)C1=O)c1cc2ccccc2[nH]1 as the compound, how does the activation read?
Its activation is inactive: -1.47%.
